Results on 42 molecules are retold here after ChEMBL document CHEMBL4888484, “Replenishing the malaria drug discovery pipeline: Screening and hit evaluation of the MMV Hit Generation Library 1 (HGL1) against asexual blood stage Plasmodium falciparum ,using a nano luciferase reporter read-out” (2022).

Screen size: about 150,000 compounds; about 540 (0.36%) showed an effect of 50% or more. The list shows a part of the results.

As usually defined, the % Inhibition is the change of the read-out against control, counted positive when it falls.

In the assay the test system is Plasmodium falciparum. The assay can be described thus: Primary screen in NF54 nanoGlo assay, in single point, at 2uM, 72h; a lower Z score goes with more inhibition. It is filed as functional, Erythrocyte. The conditions noted are these: timepoint 72 hour.
For the molecule `CCC1(C(=O)NC)CCN(C(=O)c2cccc(-c3cccc(C#N)n3)c2)CC1`, the “% Inhibition” value is reported as -14% and the Z score turned out to be 1.99.
In the case of `Cc1noc(-c2cn(CCNC(=O)c3ccco3)nn2)n1`, the “% Inhibition” value is -12% and the Z score was found to be 1.71.
With `COc1ccc([C@H]2N(C(=O)CN3CCCC3)CCCN2S(=O)(=O)c2ccc(C)cc2)cc1`, the “% Inhibition” value is listed as -5% and the Z score stood at 0.76.
As for `CCCNC(=O)COc1ccc2c(c1)[C@H](c1ccccc1)N(Cc1cccc(C)c1)CC2`, the “% Inhibition” value is -11% and the Z score came to 1.39.
For the molecule `O=C1NCC2(CCN(c3nccc(N4CCC[C@H](O)C4)n3)CC2)O1`, the “% Inhibition” value is on record as -1% and the Z score was found to be 0.14.
For `O=C(COc1ccc2nc3n(c(=O)c2c1)CCC3)NCCc1nccs1` the same measures were -6% and 0.65.
Take `Cc1csc([C@@H]2CN(C(=O)c3ccnc4c3nnn4C)CCO2)n1`: the “% Inhibition” value is -3% and the Z score turned out to be 0.29.
`CC(=O)N1CCOc2c(O)cc(-c3ccc(Cl)cn3)cc2C1`: the “% Inhibition” value is given as -9% and the Z score was determined as 0.85.
For `O=C(NCc1nc(-c2ccncc2)no1)[C@H]1CCC(F)(F)C1`, the “% Inhibition” value was -2% and the Z score came to 0.38.
`CC(=O)N(Cc1ccsc1)CC(F)(F)F`: the “% Inhibition” value was -7% and the Z score worked out at 1.12.
Regarding `COc1cc(C(=O)N2C[C@@H](CN3C[C@@H](C)O[C@@H](C)C3)[C@@H](CO)C2)ccn1`, the “% Inhibition” value is on record as 12% and the Z score was -1.59.
The corresponding values for `CC[C@@H]1Oc2ccc(NC(=O)c3ccc(Cl)cc3)cc2CN(Cc2ccccc2Cl)C1=O` are -10% and 1.28.
For the molecule `COCCc1ccc(OS(=O)(=O)c2cccc3cncc(Br)c23)cc1`, the “% Inhibition” value is 5% and the Z score is listed as -0.53.
In the case of `COc1ccc2nc(C[C@@H]3C[C@@H](C(C)C)[C@H](CNC4CCN(C(C)=O)CC4)C=C3C)[nH]c2n1`, the “% Inhibition” value is on record as 13% and the Z score is reported as -1.52.
`COCC(NC(=O)NC1CCCCC1OC)c1ccco1` (centres undefined): the “% Inhibition” value is on record as 12% and the Z score was -1.66.
For the molecule `CC(C)CC1NC2(C(=O)N(Cc3ccc(F)cc3)c3ccccc32)C2C(=O)N(Cc3ccccc3)C(=O)C12` (centres undefined), the “% Inhibition” value came out at 6% and the Z score is reported as -0.72.
`O=C(Nc1nnc(COc2ccccc2)o1)c1ccccn1`: the “% Inhibition” value was 0% and the Z score is -0.06.
Take `Cc1nc(CC(=O)N2CCn3c(C(N)=O)cnc3C2)c(C)s1`: the “% Inhibition” value is -13% and the Z score is listed as 1.76.
In the case of `O=C(Cc1ccc(CO)cc1)N1C[C@@H]2CC[C@@H](C2)C1`, the “% Inhibition” value is on record as -7% and the Z score is 1.24.
As to `Cc1nn(CC(C)C)c(Cl)c1CNC[C@@H](c1ccco1)N1CCCC1`, the “% Inhibition” value is -7% and the Z score is 1.42.
Take `COc1cc(Cn2c(=O)cc(C(F)(F)F)[nH]c2=O)cc(OC)c1`: the “% Inhibition” value is -34% and the Z score is recorded as 4.03.
For `CC(C)CN(Cc1cccc(OS(=O)(=O)c2ccc(F)cc2)c1)C(=O)C1CCC1`, the “% Inhibition” value is recorded as -4% and the Z score is listed as 0.67.
In the case of `Cc1ncnc(C)c1C(=O)N[C@H]1CC=CC[C@@H]1C(N)=O`, the “% Inhibition” value is listed as -2% and the Z score is reported as 0.33.
As to `CC(C)c1nccn1CC1CCCN1CC(=O)NC(C)c1ccco1` (centres undefined), the “% Inhibition” value is given as -11% and the Z score turned out to be 1.53.
As to `Cc1cc2n(n1)CCC(=O)N2CCCC(=O)NCc1ccccc1Cl`, the “% Inhibition” value was determined as 3% and the Z score is recorded as -0.26.
For `O=C(NCc1nc(-c2cnccn2)n[nH]1)c1conc1-c1ccccc1`, the “% Inhibition” value is -4% and the Z score is on record as 0.86.
As for `CCc1cc(C(=O)NCc2ccc(OC)cc2)nc2cc(-c3ccccn3)nn12`, the “% Inhibition” value came out at 3% and the Z score is -0.33.
For the molecule `COc1ccccc1CN(Cc1nnc(C)s1)c1ccc2[nH]c(=O)[nH]c2c1`, the “% Inhibition” value was -13% and the Z score was 1.77.
For the molecule `COc1cccc(-c2nc3nc(-c4ccccc4)oc3c(=O)[nH]2)c1`, the “% Inhibition” value was 4% and the Z score was -0.55.
For the molecule `O=C(c1ccc2ccccc2n1)N1CCC[C@H]1c1nc2ccccc2s1`, the “% Inhibition” value amounted to 12% and the Z score is -1.34.
For `Cc1ccc(Cl)cc1NC(=O)C12CCC(C)(C(=O)C1=O)C2(C)C` (centres undefined), the “% Inhibition” value was -17% and the Z score is reported as 3.25.
For `COC1CCN(C(C)(C)CNC(=O)c2c[nH]c(C(F)(F)F)c2)CC1` the same measures were -12% and 1.57.
Take `CC(C)CCNC(=O)C(=O)Nc1ccc(Br)cc1`: the “% Inhibition” value was -5% and the Z score is 0.59.
In the case of `COCC(NC(=O)NCC(O)c1cc(C)cc(C)c1)C1CC1` (centres undefined), the “% Inhibition” value worked out at 5% and the Z score is -0.68.
Turning to `Cc1cccc(OCc2ccc(OCC(F)(F)F)nn2)n1`, the “% Inhibition” value stood at 24% and the Z score was -2.43.
Turning to `Cc1ccc(CN2CCn3nc(CN(C)Cc4c(C)noc4C)cc3C2)o1`, the “% Inhibition” value is -2% and the Z score is 0.27.
Consider `Cc1nc(CNC(=O)C2(c3cccc(Cl)c3)CC(C)C2)n[nH]1` (centres undefined), for which the “% Inhibition” value came to 0% and the Z score was -0.06.
For the molecule `CCc1cc(CN(C)C(=O)N[C@H]2CC=CC[C@@H]2C(N)=O)on1`, the “% Inhibition” value was -3% and the Z score stood at 0.37.
As to `CCN1CCCCC1C(=O)NCC(O)c1ccc(OC(F)F)cc1` (centres undefined), the “% Inhibition” value is on record as -18% and the Z score came to 1.61.
With `CC(=O)N[C@@H]1c2ccccc2C2(CCN(C(=O)c3cnccn3)CC2)[C@H]1OCc1ccccc1`, the “% Inhibition” value is listed as 13% and the Z score is reported as -1.65.
For the molecule `O=C(NCc1ccccn1)NC1CCCC1`, the “% Inhibition” value worked out at 16% and the Z score is on record as -1.81.
`Cc1ccc(NCCCn2ccnc2-c2ccccc2C(=O)O)nc1`: the “% Inhibition” value is -17% and the Z score was determined as 1.89.
